From PubChem BioAssay AID1347071 (National Center for Advancing Translational Sciences (NCATS), 2019)
About 260 (0.063%) of roughly 410,000 compounds were called active. The shares of active, inactive and inconclusive entries below differ from those in the screen. Calls follow the shape of the dose curve; as a rule, active = well fitted activation curve with a large enough effect; inconclusive = small, poorly fitted or top-dose-only effect; inactive = no such curve, though single readings can be large or run the other way. Potencies of inconclusive entries are left out as doubtful fits.

experiment: qHTS for compounds that reverse cellular toxicity of Amyloid beta (A-beta) peptide in yeast: Primary Screen; conditions: yeast expressing A-beta42, growth rescue, OD600, 48 h; growth rescue: at 46.1 µM (top of the series), 0% DMSO, 100% iron-clioquinol control; also: nearly all actives have a fitted effect of over 55% in size
From the text: The A-beta peptide is produced by the processing of the amyloid precursor protein (APP) by two proteases, beta and gamma secretases. […] A-beta42 is regarded as the most amyloidogenic form due to its hydrophobicity; however, precisely how A-beta42 induces neurotoxicity is unclear. To understand further this biology and its potential therapeutic implications for human neurodegenerative disease, a quantitative high-throughput screen for compounds that reverse the cellular toxicity of the A-beta peptide was developed. A yeast based screen was used because it recapitulates the salient feature of protein mis-folding disorder accurately. This cell-based phenotypic screen provides a significant, unbiased advantage by letting the compounds and models inform us which proteins or pathways are most relevant. The ideal chemical candidates would therefore have activity in both our primary yeast and secondary neuronal toxicity assays, as well as in mouse models. They will be valuable tools for dissecting diverse protein homeostasis pathologies and could potentially become the focus for future pre-clinical development. For this luminescence assay, inhibition of A-beta rescues the toxic effect in the yeast cell, resulting in increase of signals and the desired phenotype of "Activator". This screen is run against the Molecular Libraries Small Molecule Repository (MLSMR) and the NCGC Sytravon Library Collection.
NIH Chemical Genomics Center [NCGC]
NIH Molecular Libraries Probe Centers Network [MLPCN]
Assay Submitter (PI): Susan Lindquist, Whitehead Institute, Massachusetts Institute of Technology
[1] Vassar R,et al (1999). Beta-secretase cleavage of Alzheimer's amyloid precursor protein by the transmembrane aspartic protease BACE. Science. 286: 735-741.
[2] Yan R, et al (1999). Membrane-anchored aspartyl protease with Alzheimer's disease beta-secretase activity. Nature. 402: 533-536.
Two and a half microliter / well of yeast growth medium were dispensed in a 1536 assay plate. Compounds were pinned using the Kalypsys robotic system followed by addition of 2.5 uL / well yeast solution. The assay plates were incubated at 30 C. After 48 hr, the absorbance signal at 600 nm was obtained using the PerkinElmer ViewLux plate reader to assess yeast growth. The data was normalized to the positive control of an equimolar mixture of ferric chloride (FeCl3) and clioquinol and to the negative control DMSO.
Potency is read from the fitted curve at half-maximal effect; tags tell the direction and shape of the fitted curve.

Row | Compound | Potency | growth rescue
1 | COc1ccc(NC(=O)c2ccc3ncsc3c2)cc1 | inconclusive [activator, single point] | 
2 | COC(=O)c1ccc(/C=C/c2c(-c3ccc(OC)cc3)oc3ccc(N4CCOCC4)cc23)cc1 |  | inconclusive: 30.5% [activator]
3 | O=C(COC(=O)c1ccccc1C(=O)c1ccc(Cl)cc1)NCCc1ccccc1 | inconclusive [activator, single point] | 
4 | Cc1ccc(S(=O)(=O)/N=C(/Nc2ccccc2C)c2ccccc2)cc1 | inconclusive [activator, full curve] | 
5 | O=C1/C(=C/c2ccccn2)SC(=S)N1Nc1ncc(C(F)(F)F)cc1Cl | inconclusive [activator, single point] | 
6 | CN(C(=O)c1cnc(N2CCN(c3ncccn3)CC2)c2ccccc12)c1ccc(Cl)cc1 | inconclusive [activator, single point] | 
7 | O=C(CSc1n[nH]c(-c2cc(Cl)ccc2Cl)n1)NCCN1C(=O)CSC1=O | inconclusive [activator, partial curve, poor fit] | 
8 | CCCCc1ccc(NC(=S)NCc2cccc(OC)c2)cc1 | active: 10 µM | 
9 | CCOc1ccccc1C(=O)Nc1cccc2ccccc12 |  | inactive: 6.54%
10 | Fc1ccc(CNc2ccn3nc(-c4ccccc4)cc3n2)cc1 | inconclusive [activator, single point] | 
11 | Cc1ccc(-c2cc(-c3ccccc3)c(C#N)c(N)n2)o1 |  | inactive: -52.5%
12 | COc1ccc([C@@H]2CC=C(C(=O)O)[C@H](c3ccc(Br)cc3)N2S(=O)(=O)c2ccc(C)cc2)cc1OC |  | inconclusive: 13% [activator]
13 | O=C(NCCOc1ccccc1)C1Nc2ccc(C(F)(F)F)cc2C2c3ccccc3CC12 (centres undefined) | inconclusive [activator, single point] | 
14 | CSc1ccc(S(=O)(=O)Nc2ccc(S(=O)(=O)Nc3ccc(C)cc3)cc2)cc1 |  | inactive: 23.8%
15 | O=C(Cc1ccc(F)cc1)NCCc1csc2nc(-c3ccccc3F)nn12 |  | inactive: 6.05%
16 | C/C(=N\NC(=O)c1cc(-c2cccs2)nc2ccccc12)c1ccccn1 | active: 12.6 µM | 
17 | Cc1ccc(C)c(NC(=S)NCCc2c[nH]c3ccccc23)c1 | inconclusive [activator, single point] | 
18 | Fc1ccccc1CSc1nnc(-c2cccnc2)o1 |  | inactive: 2.98%
19 | C/C(=N\NC(=S)NCc1ccccc1)c1ccc2ccccc2c1OC(F)F | inconclusive [activator, partial curve, poor fit] | 
20 | CCOC(=O)[C@H]1[C@H]2COc3ccc(Br)cc3[C@@H]2N2C(=O)CN(Cc3ccc(Cl)cc3)C(=O)[C@@]12C | inconclusive [activator, partial curve, poor fit] | 
21 | Cc1ccc(N(CC(=O)N2CCN(c3ccccc3)CC2)S(=O)(=O)c2c(C)noc2C)cc1 | inconclusive [activator, partial curve] | 
22 | Cc1ccc(C(=O)Nc2nccc(-c3cccs3)n2)cc1 |  | inactive: 1.36%
23 | CC(C)C(=O)Nc1ccc([N+](=O)[O-])cc1Br |  | inactive: 12%

Row | Compound | Potency | growth rescue
24 | Fc1ccc(-n2cc(-c3ccccc3)c3c(=S)nc[nH]c32)cc1 | inconclusive [activator, single point] | 
25 | COc1ccc(NC(=O)CN2CCN(c3ccccc3Cl)CC2)cc1 | inconclusive [activator, partial curve] | 
26 | O=C(Nc1cc(S(=O)(=O)N2CCOCC2)ccc1O)c1ccc(NS(=O)(=O)c2ccc(Cl)s2)cc1 |  | inactive: 7.49%
27 | Nc1ccc(N2CCCCC2)c(S(=O)(=O)Nc2ccc(Cl)cc2)c1 | inconclusive [activator, partial curve, poor fit] | 
28 | Cc1ccc(C)c(N(C)C(=O)Cc2c(C(=O)O)[nH]c3ccc(Cl)cc23)c1 |  | inactive: -8.9%
29 | Cc1ccc(S(=O)(=O)N2CCCC2C(=O)N(C)Cc2cccs2)cc1 (centres undefined) | inconclusive [activator, single point] | 
30 | CC(C)N(C)CCOC(=O)C1COc2ccccc2O1 (centres undefined) | inconclusive [activator, single point] | 
31 | COc1ccc(/C(N)=N/O)cc1O |  | inactive: 2.08%
32 | Cc1cc(C)c(S(=O)(=O)N2CCN(Cc3ccc4c(c3)OCO4)CC2)cc1C | inconclusive [activator, single point] | 
33 | Cc1ccc(C(C[N+](=O)[O-])c2c(C)cc3ccccn23)cc1 (centres undefined) | inconclusive [activator, partial curve, poor fit] | 
34 | Cc1cc(C(=O)COc2ccccc2Cl)c(C)n1C1CC1 | inconclusive [activator, partial curve, poor fit] | 
35 | O=C(CCSCc1ccc(Cl)cc1)NCc1ccc(F)cc1Cl | inconclusive [activator, single point] | 
36 | CCN(CCNC(=O)Cn1cc2c(n1)CCCC2)c1ccccc1 | inconclusive [activator, single point] | 
37 | CCOC(=O)Cc1c(C)c2c(C)nn(-c3ccccc3)c2oc1=O |  | inactive: -10.6%
38 | N#Cc1cc(N)ccc1-n1cccc1 |  | inactive: 12.3%
39 | CCOc1ccc(CNC(=O)CCS(=O)(=O)c2cc3c4c(c2)CCN4C(=O)CC3)cc1OC |  | inactive: -15.2%
40 | COc1ccc(/C=N/NC(=O)c2[nH]nc3c2CCc2ccccc2-3)cc1OC | inconclusive [activator, full curve] | 
41 | S=C(Nc1ccc2c(c1)OCCO2)Nc1ccccc1Cl | inconclusive [activator, single point] | 
42 | Cc1cc(C)n(-c2nc3ccccc3s2)n1 | inconclusive [activator, single point] | 
43 | CCC(=O)NC(C)c1cc(Cl)c2ccccc2c1O (centres undefined) | inconclusive [activator, single point] | 
44 | COc1cc(/C=C(\C#N)C(=O)N2CCOCC2)ccc1OCc1ccccc1 |  | inactive: -0.86%
45 | Cc1cc(NS(=O)(=O)c2ccc3c(c2)OCCO3)no1 | inconclusive [activator, partial curve, poor fit] | 
46 | COc1ccc(N(C(=O)c2ccccc2)S(=O)(=O)c2ccc3c(c2)n(C)c(=O)n3C)cc1 |  | inactive: -2.56%

Row | Compound | Potency | growth rescue
47 | CCC(CC)C(=O)N(C)c1c(C)nc2c(OCCOc3ccc(F)cc3)cccn12 | inconclusive [activator, partial curve, poor fit] | 
48 | Cc1cccc(COc2ccccc2C(=O)N(C)CC(=O)Nc2cccc(F)c2)c1 |  | inactive: 2.91%
49 | O=C(COC(=O)c1cccs1)Nc1ccccc1[N+](=O)[O-] | inconclusive [activator, partial curve, poor fit] | 
50 | COc1cccc(NC(=S)Nc2ccc(Br)cc2Cl)c1 | inconclusive [activator, partial curve, poor fit] | 
51 | O=C(Nc1ccc(S(=O)(=O)N2CCOCC2)cc1)c1cccnc1 | inconclusive [activator, single point] | 
52 | CC(C)COCc1ccc(O)c2ncccc12 | inconclusive [activator, single point] | 
53 | COc1ccc(C(=O)NC(=S)NCc2ccccc2)cc1OC | inconclusive [activator, single point] | 
54 | CC(C)(C)C(=O)Nc1nnc(SCc2ccc(F)cc2)s1 | inconclusive [activator, single point] | 
55 | COc1ccc([C@H]2CC(=O)C=C(c3ccccc3)C2)cc1 | inconclusive [activator, partial curve, poor fit] | 
56 | Cc1cccc(-n2c(-c3csc(C(C)C)c3)n[nH]c2=S)c1 | inconclusive [activator, full curve, poor fit] | 
57 | O=C(CN1C(=O)CCc2cc(S(=O)(=O)N3CCCCC3)ccc21)NCc1ccc(Cl)cc1 |  | inactive: -20.6%
58 | Cc1ccc(-n2nc(C)cc2Nc2ncc(Cl)cc2Cl)cc1 |  | inactive: -92.4%
59 | Cc1csc(=O)n1CC(=O)OCc1nnc(-c2ccc([N+](=O)[O-])cc2)o1 | inconclusive [activator, partial curve] | 
60 | Cc1cc(C)cc(-n2nnn(C3C/C(=N/NC(N)=S)C4OCC3O4)c2=S)c1 (centres undefined) | inconclusive [activator, partial curve] | 
61 | CC1CC(C)(C)n2c(O)c(N=NC(N)=S)c3cccc1c32 (centres undefined) | inconclusive [activator, partial curve, poor fit] | 
62 | COc1ccc(NS(=O)(=O)c2ccc(S(=O)(=O)N3CCCC3)cc2)cc1Cl | inconclusive [activator, single point] | 
63 | CCOc1ccc(NC(=O)C(C)n2c(=O)cc(C)c3c(C)nn(-c4ccccc4)c32)cc1 (centres undefined) |  | inactive: -13.1%
64 | CCOc1ccc(C2CC(c3ccccc3C)n3ncnc3N2)cc1 (centres undefined) | inconclusive [activator, partial curve, poor fit] | 
65 | CC(C)(C)c1ccc(COC(=O)CN2C(=O)NC3(CCCC3)C2=O)cc1 | inconclusive [activator, partial curve, poor fit] | 
66 | Nc1ccc(N2CCN(c3ccccc3)CC2)c(F)c1 |  | inactive: -30.6%
67 | Cc1ccc2ccc(C(Nc3ccccc3)c3ccc(F)cc3)c(O)c2n1 (centres undefined) | inconclusive [activator, single point] | 
68 | COc1ccc(CN2C(=O)C(CC(=O)NC3CCCC3)CC(C(=O)N(C)C)=C2C)cc1 (centres undefined) |  | inactive: 7.07%
69 | Fc1cccc(/C=C2\CCCC3=C2NC(=S)NC3c2cccc(F)c2)c1 (centres undefined) | inconclusive [activator, single point] | 
